From article PMC4336329 (PLoS ONE, 2015)
The whole screen tested about 310,000 compounds, of which about 14,000 (4.5%) showed an effect of 50% or more. The effect is printed as a negative number. The list shows a part of the results.

Biological target: human ether-à-go-go-related gene (hERG) potassium channel (human, UniProt Q12809)
Experiment: primary screen, population patch clamp on CHO cells stably expressing hERG
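Note: peak tail current of the secondary pulse compared with the same well before compound.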

Chain of human ether-à-go-go-related gene (hERG) potassium channel (Q12809 whole entry, looked up): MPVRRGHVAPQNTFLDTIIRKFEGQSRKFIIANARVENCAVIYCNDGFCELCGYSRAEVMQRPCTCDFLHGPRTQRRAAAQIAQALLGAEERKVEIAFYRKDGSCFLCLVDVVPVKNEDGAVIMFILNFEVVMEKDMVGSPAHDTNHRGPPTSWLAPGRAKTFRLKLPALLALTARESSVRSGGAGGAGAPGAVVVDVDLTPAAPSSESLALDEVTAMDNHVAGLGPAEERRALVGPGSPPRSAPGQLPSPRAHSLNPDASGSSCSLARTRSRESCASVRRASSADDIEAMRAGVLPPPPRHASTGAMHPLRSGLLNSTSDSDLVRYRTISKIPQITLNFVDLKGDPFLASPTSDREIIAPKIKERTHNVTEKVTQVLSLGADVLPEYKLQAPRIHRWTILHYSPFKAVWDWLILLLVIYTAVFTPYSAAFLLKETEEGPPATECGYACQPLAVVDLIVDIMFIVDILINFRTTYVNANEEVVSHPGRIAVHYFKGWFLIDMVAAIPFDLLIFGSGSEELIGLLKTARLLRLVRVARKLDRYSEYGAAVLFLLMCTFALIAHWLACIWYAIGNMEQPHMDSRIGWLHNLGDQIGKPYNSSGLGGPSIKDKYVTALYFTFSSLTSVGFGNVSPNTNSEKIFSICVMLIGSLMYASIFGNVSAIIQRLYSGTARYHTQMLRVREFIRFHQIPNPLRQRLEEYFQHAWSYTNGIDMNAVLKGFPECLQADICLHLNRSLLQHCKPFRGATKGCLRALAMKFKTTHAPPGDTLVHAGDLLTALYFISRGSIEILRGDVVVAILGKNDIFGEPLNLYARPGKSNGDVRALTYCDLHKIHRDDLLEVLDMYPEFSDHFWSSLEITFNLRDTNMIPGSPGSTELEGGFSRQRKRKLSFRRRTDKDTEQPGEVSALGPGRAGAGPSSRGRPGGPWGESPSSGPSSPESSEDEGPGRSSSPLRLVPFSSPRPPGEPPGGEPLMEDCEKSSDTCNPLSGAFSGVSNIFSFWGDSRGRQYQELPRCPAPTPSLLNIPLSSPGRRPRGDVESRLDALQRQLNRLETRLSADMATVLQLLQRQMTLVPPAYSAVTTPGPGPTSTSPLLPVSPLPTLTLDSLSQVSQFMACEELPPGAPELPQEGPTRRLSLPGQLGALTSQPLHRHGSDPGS

Compound | hERG current change (%, negative = inhibition) at 10uM [%]
Cc1nc2nc(CCNS(=O)(=O)c3ccc(Cl)cc3)cn2nc1C | 11.6
Cc1cc(C)n(CC(C)C(=O)O)n1 (centres unmarked) | 14.2
COc1ccc(-c2csc(NC(=O)C3CSC4(C)CCC(=O)N34)n2)c(OC)c1 (centres unmarked) | -2.85
Cc1cccc(-n2nc3c(c2NC(=O)c2ccc4c(c2)OCO4)CS(=O)(=O)C3)c1C | 10.4
Cc1cc(=O)n2nc(N3CCCC(C(=O)NCc4ccccc4Cl)C3)sc2n1 (centres unmarked) | -18.7
Cc1ccc(S(=O)(=O)Nc2ccc3c(c2)OCCO3)cc1C | 8.12
CN(CC(=O)NNC(=O)CNC(=O)c1ccccc1F)S(=O)(=O)c1ccc(Cl)cc1 | -5.72
CCCCc1cc(=O)oc2c(C)c(OCc3nn[nH]n3)ccc12 | -2.31
COc1ccc(-n2c(Cc3cccn3C)nnc2SCC(=O)NC2CCCCC2)cc1 | -15.1
O=C(CNC1CCCCC1)Nc1ccc(Cl)cc1 | -5.47
OCCC1CN(Cc2cnc(-c3ccc(Cl)cc3)nc2)CCN1C1CCCC1 (centres unmarked) | -73.5
COC(=O)c1ccc(CNC(=O)C2CCC(=O)N(Cc3ccccn3)C2)cc1 (centres unmarked) | 13.8
CCOc1cc(Cl)c(CNCCCN2CCOCC2)cc1OC | 18.6
COc1ccc(S(=O)(=O)Nc2ccccn2)cc1OC | 6.99
Cc1ccc(N2C(=O)CC(Sc3nc(C)cc(C)n3)C2=O)cc1 (centres unmarked) | 12
COC(=O)CCCC1=CC2=C(c3ccccc3)C(=O)C(C)(OC(=O)C3CCCC3)C(=O)C2=CN1Cc1ccc2c(c1)OCO2 (centres unmarked) | -3.01
Cc1nc(C)n(CC(C)C(=O)N2CCN(S(=O)(=O)c3ccccc3)CC2)n1 (centres unmarked) | 20.3
O=c1c2ccccc2nc2ccc(N3CCOCC3)nn12 | 2.35
CCC(=O)Nc1cccc(SC)c1 | 28.9
COc1ccc2oc(=O)c(-c3nc(C)cs3)cc2c1 | 2.63
O=C(CSc1nc(-c2ccc(F)cc2)cs1)NC(=O)NCc1ccco1 | -13
Cc1c(C(=O)NNC(=O)Nc2ccc([N+](=O)[O-])cc2)oc2ccccc12 | 1.35

Compound | hERG current change (%, negative = inhibition) at 10uM [%]
CCCNC(=O)Cc1ccsc1 | 9.93
CC(=O)N1c2ccc(S(=O)(=O)NCC3CCC(C(=O)Nc4cccc(C)n4)CC3)cc2CC1C (centres unmarked) | -17.3
Cc1ccccc1-n1c(SCC(=O)Nc2ccc3c(c2)OCO3)nnc1-c1ccccn1 | -65.3
CCOc1ccc(NC(=S)N2CCC(NC(=O)c3ccccc3)CC2)cc1 | 1.49
CC1(C)CC(NC(=O)c2ccccc2F)CC(C)(C)N1 | 1.84
CCN1C(=NCCOC)N[C@@H](c2cccs2)C(C(=O)OC)=C1C | -5.96
CCOC(=O)Cc1c(C)nc2cc(C)nn2c1C | 0.264
COc1ccc(Cn2c(=O)[nH]c3cc(C(=O)NC4CCN(Cc5ccccc5)CC4)ccc32)cc1 | -3.88
COc1cc(C(=S)N2CCOCC2)cc(OC)c1OS(=O)(=O)c1ccc(Cl)cc1 | 15.1
O=C(Nc1nc(-c2ccco2)c(-c2ccco2)s1)C1CCC1 | -3.44
CCOC(=O)/C=C1/N(C)c2ccccc2C1(C)C | 13.3
O=[N+]([O-])c1cc(/C=N/O)ccc1N1CCCC1 | -10.9
COC(=O)c1ccccc1NC(=S)N(Cc1ccc2c(c1)OCO2)Cc1cc2ccc(C)cc2[nH]c1=O | 15.1
CC1=C(C(N)=O)C(c2ccc(F)cc2)n2nc(CCCO)nc2N1 (centres unmarked) | 20.3
COc1ccc(N2C(=O)c3ccccc3NC23CCCC3)cc1 | 5.72
COc1ccc(C(=O)NC2CCSC2=O)cc1 (centres unmarked) | -0.732
Cc1cccn2c(=O)c3cc(C(=O)N4COCC4(C)C)sc3nc12 | 0.269
CN(CC(=O)Nc1ccc(F)cc1)C(=O)c1cccc(S(=O)(=O)N2CCN(c3ccccc3)CC2)c1 | -3.13
O=C(Oc1cc(-c2ccccc2)no1)c1cccc(C(F)(F)F)c1 | 19.3
O=C1c2ccccc2-c2ncnc3c(N4CCOCC4)cc(N4CCOCC4)c1c23 | -60
CC(C)c1ccc(CCNC(=O)CSC(=S)N2CCCC2)cc1 | 0.382
COCCNc1ccc(N2C(=O)C3CCCCC3C2=O)cc1[N+](=O)[O-] (centres unmarked) | 0.289
